Test results as given in article PMC4336329 (PLoS ONE, 2015).
Screen size: about 310,000 compounds; about 2,200 (0.71%) showed an effect of 50% or more. Effects have a minus sign here. Some of the results follow.

target: human ether-à-go-go-related gene (hERG) potassium channel (human, UniProt Q12809); assay: primary screen, population patch clamp on CHO cells stably expressing hERG
Sequence (Q12809 whole entry, looked up): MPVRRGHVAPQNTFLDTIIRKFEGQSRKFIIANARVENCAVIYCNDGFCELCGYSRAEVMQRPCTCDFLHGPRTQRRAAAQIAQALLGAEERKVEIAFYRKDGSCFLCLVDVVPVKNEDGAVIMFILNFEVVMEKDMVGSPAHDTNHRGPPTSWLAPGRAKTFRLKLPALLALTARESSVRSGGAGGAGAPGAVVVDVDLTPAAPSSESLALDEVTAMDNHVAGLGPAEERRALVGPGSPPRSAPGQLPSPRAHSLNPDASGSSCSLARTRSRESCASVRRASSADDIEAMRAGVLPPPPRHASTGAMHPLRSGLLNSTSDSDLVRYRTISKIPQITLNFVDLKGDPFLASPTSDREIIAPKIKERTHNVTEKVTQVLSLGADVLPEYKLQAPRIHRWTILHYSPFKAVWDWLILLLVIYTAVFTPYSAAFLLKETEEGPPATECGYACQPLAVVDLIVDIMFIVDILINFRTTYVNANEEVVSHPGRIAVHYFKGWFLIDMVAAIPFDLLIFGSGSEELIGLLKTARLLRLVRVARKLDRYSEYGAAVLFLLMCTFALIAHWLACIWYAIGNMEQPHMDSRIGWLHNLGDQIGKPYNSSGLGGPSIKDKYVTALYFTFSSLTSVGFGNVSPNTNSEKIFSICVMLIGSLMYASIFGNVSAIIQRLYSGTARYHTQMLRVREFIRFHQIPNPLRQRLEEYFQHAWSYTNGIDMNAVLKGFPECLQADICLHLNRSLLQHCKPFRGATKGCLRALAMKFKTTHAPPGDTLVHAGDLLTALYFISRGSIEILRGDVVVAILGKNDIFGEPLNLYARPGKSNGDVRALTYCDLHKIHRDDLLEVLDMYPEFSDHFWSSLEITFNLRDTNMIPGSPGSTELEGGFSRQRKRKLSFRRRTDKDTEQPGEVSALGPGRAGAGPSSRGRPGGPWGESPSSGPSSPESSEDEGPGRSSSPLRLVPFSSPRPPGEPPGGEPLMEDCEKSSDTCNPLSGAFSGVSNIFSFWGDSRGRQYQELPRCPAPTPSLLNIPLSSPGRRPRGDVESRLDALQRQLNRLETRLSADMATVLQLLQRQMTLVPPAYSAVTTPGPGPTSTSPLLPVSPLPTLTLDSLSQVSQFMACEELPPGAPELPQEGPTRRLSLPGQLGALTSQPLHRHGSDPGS

Question: `Cn1c(NC(=O)c2ccc(F)cc2)nc2ccccc21` was tested. Which “hERG current change (%, negative = inhibition) at 1uM” value did it give?
Answer: 15.3%

Question: For `COc1cc(C(=O)Nc2cc3c(cc2N2CCCCC2)n(C)c(=O)n3C)cc(OC)c1OC`, which “hERG current change (%, negative = inhibition) at 1uM” value is on record?
Answer: 18.3%

Question: With `CCc1ccc(OCC(=O)NC2CC(C)(C)NC(C)(C)C2)cc1` as the compound, how does the “hERG current change (%, negative = inhibition) at 1uM” value read?
Answer: 0.201%

Question: How did the “hERG current change (%, negative = inhibition) at 1uM” value turn out when `Cn1c(N)c(C(=O)COC(=O)c2ccc(Cl)c(S(=O)(=O)N3CCCCC3)c2)c(=O)n(C)c1=O` was run?
Answer: 9.84%

Question: With `COc1ccc(CCn2c(C)cc(C(=O)COC(=O)c3cnccn3)c2C)cc1` as the compound, how does the “hERG current change (%, negative = inhibition) at 1uM” value read?
Answer: 5.85%

Question: How did the “hERG current change (%, negative = inhibition) at 1uM” value turn out when `COc1cc(OC)c2ccc(=O)oc2c1C(CC(=O)N1CCCC1)c1ccc(N(C)C)cc1` (centres unmarked) was run?
Answer: 14.9%

Question: For `CC(CC(=O)Nc1nnc(C(C)(C)C)s1)c1ccccc1` (centres unmarked), which “hERG current change (%, negative = inhibition) at 1uM” value is on record?
Answer: 7.98%

Question: `Cn1c2c(c(=O)n(C)c1=O)C(NS(=O)(=O)c1ccc(Cl)cc1)(C(F)(F)F)C(=O)N2` (centres unmarked) was tested. Which “hERG current change (%, negative = inhibition) at 1uM” value did it give?
Answer: -2.13%

Question: With `COc1ccc(C2/C(=C(\O)c3ccc4c(c3)OCCO4)C(=O)C(=O)N2c2nc(C)c(C(C)=O)s2)cc1` (centres unmarked) as the compound, how does the “hERG current change (%, negative = inhibition) at 1uM” value read?
Answer: 8.1%

Question: How did the “hERG current change (%, negative = inhibition) at 1uM” value turn out when `O=C(NCCN1CCCCC1)Nc1ccc(F)c(Cl)c1` was run?
Answer: 13.6%

Question: With `COCCn1c(-c2ccc(OC)cc2)c(-c2ccc(OC)cc2)oc1=O` as the compound, how does the “hERG current change (%, negative = inhibition) at 1uM” value read?
Answer: -1.77%

Question: For `COC(=O)Cn1c(=O)c2c(nc3n2CCCN3CCc2ccc(OC)c(OC)c2)n(C)c1=O`, which “hERG current change (%, negative = inhibition) at 1uM” value is on record?
Answer: 5.05%

Question: Which “hERG current change (%, negative = inhibition) at 1uM” value does the source give for `COc1cc(OC)cc(C(=O)NC(=S)NCCc2ccccc2)c1` here?
Answer: -9.12%

Question: `CCOc1ccc(NC(=O)CCN2CCN(c3ccccc3F)CC2)cc1` was tested. Which “hERG current change (%, negative = inhibition) at 1uM” value did it give?
Answer: 12.1%

Question: With `CCOC(=O)C1=C(C)NC(=O)NC1c1c(OC)ccc2ccccc12` (centres unmarked) as the compound, how does the “hERG current change (%, negative = inhibition) at 1uM” value read?
Answer: 13.3%

Question: For `CCOc1ccccc1NC(=O)c1nc[nH]c1C(=O)Nc1ccccc1OCC`, which “hERG current change (%, negative = inhibition) at 1uM” value is on record?
Answer: 14.9%

Question: `NC(=O)C1CCN(C(=O)CCC(=O)N2CCOc3ccc(Cl)cc32)CC1` was tested. Which “hERG current change (%, negative = inhibition) at 1uM” value did it give?
Answer: 13.4%

Question: `CCOC(=O)C(=O)Nc1sc(C(=O)N2CCOCC2)c(C)c1C#N` was tested. Which “hERG current change (%, negative = inhibition) at 1uM” value did it give?
Answer: 9.78%

Question: Which “hERG current change (%, negative = inhibition) at 1uM” value does the source give for `CC(C)c1ccc(OCc2cccc(C(=O)N/N=C/c3cccnc3)c2)cc1` here?
Answer: 2.75%

Question: Which “hERG current change (%, negative = inhibition) at 1uM” value does the source give for `Cc1cccc(-c2cc3nc4c(c(N5CCC6(CC5)OCCO6)n3n2)CCCC4)c1` here?
Answer: 16.8%

Question: For `Cc1ccc(CN2CCSc3ccc(C(=O)N4CCOCC4)cc32)cc1`, which “hERG current change (%, negative = inhibition) at 1uM” value is on record?
Answer: 15.5%

Question: Which “hERG current change (%, negative = inhibition) at 1uM” value does the source give for `O=c1[nH]c(/C=C/c2ccc([N+](=O)[O-])cc2)c([N+](=O)[O-])c(=O)[nH]1` here?
Answer: 13.5%

Question: With `COCCn1c(C)cc2c(c1=O)C(c1ccco1)C(C#N)=C(N)O2` (centres unmarked) as the compound, how does the “hERG current change (%, negative = inhibition) at 1uM” value read?
Answer: 14.1%

Question: Which “hERG current change (%, negative = inhibition) at 1uM” value does the source give for `CCOc1cccc(C(=O)NC(=S)Nc2ccc(N3CCN(CC)CC3)cc2)c1` here?
Answer: -1.79%

Question: With `CC1CCCN(C(=O)CSc2nnc(-c3cccs3)o2)C1` (centres unmarked) as the compound, how does the “hERG current change (%, negative = inhibition) at 1uM” value read?
Answer: 15.8%

Question: `COc1ccccc1N/C=C/C(=C(C#N)C#N)N(C)C` was tested. Which “hERG current change (%, negative = inhibition) at 1uM” value did it give?
Answer: 8.57%

Question: How did the “hERG current change (%, negative = inhibition) at 1uM” value turn out when `CCSc1cc(C)nc2c(-c3ccccc3)cnn12` was run?
Answer: 8.93%

Question: How did the “hERG current change (%, negative = inhibition) at 1uM” value turn out when `CCn1cc(C(=O)NCC(C)C)c(=O)c2cc(F)c(N3CCN(C)CC3)cc21` was run?
Answer: 9.68%

Question: Which “hERG current change (%, negative = inhibition) at 1uM” value does the source give for `CCOc1ccc(NC(=O)c2ccccc2NC(=O)CN2CCN(C(C)=O)CC2)cc1` here?
Answer: 8.68%

Question: How did the “hERG current change (%, negative = inhibition) at 1uM” value turn out when `NC(=O)CCC(NS(=O)(=O)c1ccc(Cl)cc1)C(=O)NCC1CCCCC1` (centres unmarked) was run?
Answer: 14.7%

Question: For `CCCCn1c(O)c(C(C)=Nc2ccc3c(c2)CCC3)c(=O)[nH]c1=O`, which “hERG current change (%, negative = inhibition) at 1uM” value is on record?
Answer: 8.9%

Question: Which “hERG current change (%, negative = inhibition) at 1uM” value does the source give for `COc1ccc(OC)c2sc(NC(=O)c3ccc(S(=O)(=O)N(C)C)cc3)nc12` here?
Answer: 7.51%

Question: `CCOC(=O)N1CCN(C(=S)NC(=O)C2CCCC2)CC1` was tested. Which “hERG current change (%, negative = inhibition) at 1uM” value did it give?
Answer: 0.69%

Question: `Cc1ccc(N2C(=O)Nc3ccc(Br)cc3C2(O)C(=O)NCCCN(C)C)cc1C` (centres unmarked) was tested. Which “hERG current change (%, negative = inhibition) at 1uM” value did it give?
Answer: 4.62%

Question: With `CCCNC(=O)C(Cc1cccc(Cl)c1)NC(=O)c1ccccc1` (centres unmarked) as the compound, how does the “hERG current change (%, negative = inhibition) at 1uM” value read?
Answer: 14.7%

Question: How did the “hERG current change (%, negative = inhibition) at 1uM” value turn out when `COc1cc(NC(=O)CSCC(=O)Nc2cccc(C(F)(F)F)c2)c(Cl)cc1Cl` was run?
Answer: 13.7%

Question: Which “hERG current change (%, negative = inhibition) at 1uM” value does the source give for `CCOC(=O)C1CCN(C(=O)CSCCSCC(=O)N2CCC(C(=O)OCC)CC2)CC1` here?
Answer: -10.2%

Question: `O=C(Cn1nc(Cc2cccnc2)c2ccccc2c1=O)NCC1CCCO1` (centres unmarked) was tested. Which “hERG current change (%, negative = inhibition) at 1uM” value did it give?
Answer: 14.4%

Question: Which “hERG current change (%, negative = inhibition) at 1uM” value does the source give for `CCSc1nnc(NC(=O)CC)s1` here?
Answer: 8.29%

Question: With `Cc1nnc(SC(C)C(=O)NC2CCCc3ccccc32)n1-c1ccccc1` (centres unmarked) as the compound, how does the “hERG current change (%, negative = inhibition) at 1uM” value read?
Answer: 9.46%

Question: How did the “hERG current change (%, negative = inhibition) at 1uM” value turn out when `O=C(CN1C(=O)c2ccccc2S1(=O)=O)c1ccc(O)c(O)c1` was run?
Answer: 11.2%

Question: For `CC(C)CC(C(=O)OCC(=O)c1c(N)n(C)c(=O)n(C)c1=O)N1C(=O)C2CC=CCC2C1=O` (centres unmarked), which “hERG current change (%, negative = inhibition) at 1uM” value is on record?
Answer: 4.11%

Question: How did the “hERG current change (%, negative = inhibition) at 1uM” value turn out when `O=S(=O)(c1ccccc1)N1CCN(C(=S)NCCc2ccccc2)CC1` was run?
Answer: 14.4%

Question: `COCc1cc(C)nc(SCC[N+](C)(C)CC(=O)Nc2cccc(C(F)(F)F)c2)c1C#N.[Cl-]` was tested. Which “hERG current change (%, negative = inhibition) at 1uM” value did it give?
Answer: 13%
